Among the data in PMC12136788 are binding signal values, retold here.

Some of the results follow.

Sequences and labels used below:
T1: UNK ZnF1-6 (called full-length) (human, UniProt Q9C0B0 30-357)
T1 sequence: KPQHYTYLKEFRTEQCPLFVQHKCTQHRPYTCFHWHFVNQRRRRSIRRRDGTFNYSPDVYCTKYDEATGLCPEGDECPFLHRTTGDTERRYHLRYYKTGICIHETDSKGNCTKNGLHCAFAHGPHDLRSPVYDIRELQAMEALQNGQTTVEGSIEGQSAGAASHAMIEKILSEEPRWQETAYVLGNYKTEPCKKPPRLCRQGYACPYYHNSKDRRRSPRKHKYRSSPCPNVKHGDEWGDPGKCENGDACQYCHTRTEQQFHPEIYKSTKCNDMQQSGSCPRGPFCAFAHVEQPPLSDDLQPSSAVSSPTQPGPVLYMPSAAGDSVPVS

B1: ENSG00000070961:be:win_4601|3pUTR|ENSG00000070961|bound_else_gene|NA|bound_elsewhere_windowed (ssRNA)
RNA: GGGAGUUCUACAGUCCGACGAUCUCAGACUAUCAAACUACAAGAGAACCUUAGUCUUUUUUGUUUUUGUCUAAACAUGUUAGUUUAGUGAUGUCUUGGUGAACUGUGAGUGAACUGUAUUGAUUUUUCUAAUCUUUAGAGACCCAACAGAGGAUUGAGCAUCA
B2: chr1:201892154:201892255:+|3pUTR|ENSG00000198892|msi1|FALSE|unique (ssRNA)
RNA: GGGAGUUCUACAGUCCGACGAUCUGUUUGUCCCCUCUGGGCUGGGGUGGGGGGAGGGAGGAGGUUCCGUCAGCAGCUGGCAGUAGCCCUCCUCUCUGGCUGCCCCACUGGCCACAUCUCUGGCCUGCUAGAUUAAAGCUGUAACAACAGAGGAUUGAGCAUCA
B3: chr8:100287602:100287712:-|CDS|ENSG00000034677|unk|total|mutant (ssRNA)
RNA: GGGAGUUCUACAGUCCGACGAUCUGUGUGGAUUGCUUACGACAAUAUUUAAGGACCGAAAUCUCUGAAAGCAGAGUUAAUAUCCGUUGCCCAGAAUGUACUGAACGGUUUAAUCCCCAUGAUAUUCGCUUGAUAUUAAGUGAUCAACAGAGGAUUGAGCAUCA
B4: chr10:17315694:17315795:-|3pUTR|ENSG00000148488|unk|FALSE|unique (ssRNA)
RNA: GGGAGUUCUACAGUCCGACGAUCCUUCUUCCUCCCUGUCCAUCCCACCCUCGUCCCCAGAAAAUUCCUAAUCUGUUUUUCUAUAGACAUUUACAUUUUUACACUAUAGACUGUUUACAUUUUUUAGAAUUUUAUAUAAAUGGACAACAGAGGAUUGAGCAUCA
B5: chr14:100881274:100881386:-|CDS|ENSG00000254656|unk|total|mutant (ssRNA)
RNA: GGGAGUUCUACAGUCCGACGAUCCGCAGGCAGCAGCAUCACGACAGCCAUCACCCAGCUGCUCACCCAGAUGCCCGCUCUCGCCGGUGCAAACACCAUCCCAGCCCAGGAGCUGGCUGAGCUGUUCCUGGGCCCUGGCCGCUGCAACAGAGGAUUGAGCAUCA
B6: ENSG00000107863:be:win_2401|CDS|ENSG00000107863|bound_else_gene|NA|bound_elsewhere_windowed (ssRNA)
RNA: GGGAGUUCUACAGUCCGACGAUCUUGGCUUCCAUCCCAUUUAUAGAUGAACCAACUAGCCCUAGCAUUGAUCAUGAUAUUGCACAUAUCCCUGCCUCUGCUGUUAUAUCAGCCUCUACCUCUCAGGUCCCCUCCAUAGCAACACAACAGAGGAUUGAGCAUCA
B7: chr10:87746157:87746259:+|3pUTR|ENSG00000198682|unk|FALSE|unique (ssRNA)
RNA: GGGAGUUCUACAGUCCGACGAUCAACUGAAGACCAAAUCUUAGCAGGUAAAAGCAAUAUUCUUAUACAUUUCAUAAUAAAAUUAGCUCUAUGUAUUUUCUACUGCACCUGAGCAGGCAGGUCCCAGAUUUCUUAAGGCUUUGUCAACAGAGGAUUGAGCAUCA
B8: ENSG00000112936:stop:overlap|stop_codon|ENSG00000112936|stop_codon|NA|stop_codon (ssRNA)
RNA: GGGAGUUCUACAGUCCGACGAUCGAUGCAGAGGGCAGAGCAUCUCUGUCACCAGCAUAAGGCCUUGUGCUGCGGAAACCCAGUAGGCUCCUGGAGGCCCUGGUCAGCUUGCUUGGAAUCCAGCAGGCAGCUGGGGCUGAGUGACAACAGAGGAUUGAGCAUCA
B9: chr7:6690371:6690472:-|3pUTR|ENSG00000164631|msi1|total|mutant (ssRNA)
RNA: GGGAGUUCUACAGUCCGACGAUCUGAAAAAAAAAAAAGAAACCGAAGAUUCCUGCUGUGAAUAAACAUACUUCUUGUGUAAACCGAAACUGUAAAGUCAUCAGGACCGCCCGUUAAGUCGGUAACCUUAAACUCAUGUAAGCACAACAGAGGAUUGAGCAUCA
B10: chr6:89631235:89631336:+|3pUTR|ENSG00000135299|msi1|total|mutant (ssRNA)
RNA: GGGAGUUCUACAGUCCGACGAUCUGAAGUUUGAAAGCUCAGAUUAAGCAAGCCAUGCCAAGAAACUGGACGAUGUGUAAGCCCCGACUCUAAAAUUCAAGAUGUGUGAAAUAAUAUAAGUCAAAAGCAAGAAAAACGUAAUCCCAACAGAGGAUUGAGCAUCA
B11: chr16:11872726:11872856:-|3pUTR|ENSG00000103342|msi1_unk|FALSE|overlapping (ssRNA)
RNA: GGGAGUUCUACAGUCCGACGAUCACAUAAUUGCCUACAAUAAUGAAAACCUACAGGAAUUUUUUUAUUUUUCAUUUUCCCCUUAGGCAUAUUUAGUAUUUUUCCCCCAGGCAGAUCAUUCUGAGUGUGCGAGUGUGUGUGCACCAACAGAGGAUUGAGCAUCA
B12: chr1:186359875:186359976:-|CDS|ENSG00000047410|msi1_unk|total|mutant (ssRNA)
RNA: GGGAGUUCUACAGUCCGACGAUCGGAAACUCAGGAUCAGUUGCUUUUGGAGAAACCCGAGAACAAAAGAAUUAAUAAGUACCCCGAUGAAACCGUGAAAGAAGUGGAAGCCAAAGCACCAAUUUUGAAACGCCAGCGUGAGGACAACAGAGGAUUGAGCAUCA
B13: chr7:152122106:152122213:+|3pUTR|ENSG00000178234|unk|total|mutant (ssRNA)
RNA: GGGAGUUCUACAGUCCGACGAUCAGUGGUUUUUAUCUGAUCAGGAACUUGUCAUGAUUUCCUUUCUCCGACUUCACCGGAGACCGUGCUUUAAAAAAAAAAAAAACUUCUAUUAUUUGUUCCGUAUGUUGUAAGCCGAUCAUUCAACAGAGGAUUGAGCAUCA
B14: chr1:43623430:43623515:+|3pUTR|ENSG00000142949|msi1_unk|total|mutant (ssRNA)
RNA: GGGAGUUCUACAGUCCGACGAUCGGCGGGGAAGGGUGCACCGCUGUUUCCGCUGAGGGACGUGGUGCCGACGUCCCCAAACCCCGCCCGGCUAAGUCAAGAUCAACAUUCCAGGGUUGGUAAUGUUGGAUGAUGAAACAUUCACAACAGAGGAUUGAGCAUCA
B15: chr12:104760787:104760888:+|3pUTR|ENSG00000171310|unk|FALSE|unique (ssRNA)
RNA: GGGAGUUCUACAGUCCGACGAUCUUCUUUUCUAAUGGCAUUGAAACUUUAAAAAAAAUGGAUUCAACUGUUUUUGCAGAAUGUAGAAAGUAUUCUGUGUCCUUGGUUAAAGAAAUCCACUUGUGAAGUGUGCCUGGAAAAUGACAACAGAGGAUUGAGCAUCA
B16: ENSG00000006125:stop:overlap|stop_codon|ENSG00000006125|stop_codon|NA|stop_codon (ssRNA)
RNA: GGGAGUUCUACAGUCCGACGAUCCAUCAGAAACACAGGAGCUAGUCCAGCAGGUCUUGAGUUUGGCAACACAGCUAAAGAAGUAGUCUUGUCUGAGAAGCCACUGAUCUCUGAGGAGACGGACCUUAUUGAGCCAACUCUGCUCAACAGAGGAUUGAGCAUCA
B17: chr5:1253166:1253831:-|three_prime_utr|ENSG00000164362|control|control|control (ssRNA)
RNA: GGGAGUUCUACAGUCCGACGAUCCUCGGCUCCACCCCAGGGCCAGCUUUUCCUCACCAGGAGCCCGGCUUCCACUCCCCACAUAGGAAUAGUCCAUCCCCAGAUUCGCCAUUGUUCACCCCUCGCCCUGCCCUCCUUUGCCUUCAACAGAGGAUUGAGCAUCA
B18: chr1:155263244:155263345:-|CDS|ENSG00000176444|unk|FALSE|unique (ssRNA)
RNA: GGGAGUUCUACAGUCCGACGAUCGUAUCUGACCUCAGAGGCAGAGGAACACCACCAGCUCUUCGAUCUGAUUGAAAGCAUGCUAGAGUAUGAACCAGCUAAGCGGCUGACCUUGGGUGAAGCCCUUCAGCAUCCUUUCUUCGCCAACAGAGGAUUGAGCAUCA
B19: chr1:16124655:16124788:-|3pUTR|ENSG00000142627|msi1|FALSE|unique (ssRNA)
RNA: GGGAGUUCUACAGUCCGACGAUCAGACUGUGAACUUGACUGGGUGAGACCCAAAGCGGUCCCUGUCCCUCUAGUGCCUUCUUUAGACCCUCGGGCCCCAUCCUCAUCCCUGACUGGCCAAACCCUUGCUUUCCUGGGCCUUUGCAACAGAGGAUUGAGCAUCA
B20: chr1:192811693:192811799:+|3pUTR|ENSG00000116741|unk|FALSE|unique (ssRNA)
RNA: GGGAGUUCUACAGUCCGACGAUCCUUGAAUUCAGCCUGGGUGUUCAGGAAACAUCACUCAGAACUAUUGAUUCAAAGUUGGGUAGUGAAUCAGGAAGCCAGUAACUGACUAGGAGAAGCUGGUAUCAGAACAGCUUCCCUCACCAACAGAGGAUUGAGCAUCA
B21: chr1:150144965:150145066:+|3pUTR|ENSG00000136631|msi1|FALSE|unique (ssRNA)
RNA: GGGAGUUCUACAGUCCGACGAUCAGACUCCCAGAGUUGUCCUAACAAUAAGUCUGAGCCCAUCUCAACCCACUUUUCUCCGGUAGUCUUUAUGUAUCUGUUAGCACAAUCACUUCAGUUACUGAUGAAUUUUGUUGGGAUCUGCAACAGAGGAUUGAGCAUCA
B22: chr14:92163265:92163366:+|3pUTR|ENSG00000165934|msi1|total|mutant (ssRNA)
RNA: GGGAGUUCUACAGUCCGACGAUCUAAUAUCAGACUCGAAUUACUAUUUCAUUCUAUUUCAAAUGCUUAUAAAGCUACUAUUGCCGAUUACCGUGUUAAUGCAAAGUUUACAGACUUUUGAUAUGGAAAACCAGAUAAAACAAUCAACAGAGGAUUGAGCAUCA

The target in the experiment is T1, UNK ZnF1-6 (called full-length). Nature of the experiment: nsRBNS (natural sequence RNA bind-n-seq); RBNS binding buffer (assumed for nsRBNS): 25 mM Tris pH 7.5, 150 mM KCl, 3 mM MgCl2, 0.01% Triton X-100, 500 ug/ml BSA, 20 U/ml SUPERase-In, 4 C; UNK is unkempt and MSI1 is Musashi-1; names of the RNAs are library labels; protein concentration not given here; high values mean tight binding.
Molecule B1 showed a binding signal of 2.66 enrichment R.

As for B2, the binding signal came out at 0.818 enrichment R.

B3 registered a binding signal of 0.232 enrichment R.

B4 returned a binding signal of 25.2 enrichment R.

B5 showed a binding signal of 0.571 enrichment R.

Molecule B6 displayed a binding signal of 4.07 enrichment R.

In turn, B7 showed a binding signal of 18.7 enrichment R.

B8: the binding signal turned out to be 0.329 enrichment R.

B9: the binding signal was 0.374 enrichment R.

On to B10, for which the binding signal stood at 0.4 enrichment R.

Turning to B11, the binding signal amounted to 11.3 enrichment R.

Turning to B12, the binding signal came out at 0.979 enrichment R.

For the molecule B13, the binding signal worked out at 0.949 enrichment R.

B14 gave a binding signal of 0.368 enrichment R.

Consider B15, for which the binding signal stood at 0.431 enrichment R.

The molecule B16 showed a binding signal of 0.545 enrichment R.

As to B17, the binding signal was found to be 2.26 enrichment R.

Consider B18, for which the binding signal worked out at 0.586 enrichment R.

B19 showed a binding signal of 1.36 enrichment R.

Turning to B20, the binding signal was found to be 0.394 enrichment R.

Turning to B21, the binding signal was 0.566 enrichment R.

On to B22, for which the binding signal was 0.435 enrichment R.
